Experimental data published in paper PMC6919601, “Identification of Plasmodium dipeptidyl aminopeptidase allosteric inhibitors by high throughput screening” (PLoS ONE, 2019).
Where “and” joins values, the source holds several entries; their conditions need not be identical. Equal values may be shown once. The whole screen tested about 110,000 compounds, of which about 230 (0.21%) showed an effect of 50% or more. Some of the results follow.

Target: DPAP1 (Plasmodium falciparum, UniProt Q8IIJ9)
Assay: primary screen, percent inhibition; read by cleavage of a fluorogenic dipeptide substrate; higher = more effect of the substance
Parameters: species or system P. falciparum D10 trophozoite lysates; single well
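Further: 30 min substrate incubation versus DMSO and 10 µM JCP410 controls.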

Chain of DPAP1 (Q8IIJ9 whole entry, looked up): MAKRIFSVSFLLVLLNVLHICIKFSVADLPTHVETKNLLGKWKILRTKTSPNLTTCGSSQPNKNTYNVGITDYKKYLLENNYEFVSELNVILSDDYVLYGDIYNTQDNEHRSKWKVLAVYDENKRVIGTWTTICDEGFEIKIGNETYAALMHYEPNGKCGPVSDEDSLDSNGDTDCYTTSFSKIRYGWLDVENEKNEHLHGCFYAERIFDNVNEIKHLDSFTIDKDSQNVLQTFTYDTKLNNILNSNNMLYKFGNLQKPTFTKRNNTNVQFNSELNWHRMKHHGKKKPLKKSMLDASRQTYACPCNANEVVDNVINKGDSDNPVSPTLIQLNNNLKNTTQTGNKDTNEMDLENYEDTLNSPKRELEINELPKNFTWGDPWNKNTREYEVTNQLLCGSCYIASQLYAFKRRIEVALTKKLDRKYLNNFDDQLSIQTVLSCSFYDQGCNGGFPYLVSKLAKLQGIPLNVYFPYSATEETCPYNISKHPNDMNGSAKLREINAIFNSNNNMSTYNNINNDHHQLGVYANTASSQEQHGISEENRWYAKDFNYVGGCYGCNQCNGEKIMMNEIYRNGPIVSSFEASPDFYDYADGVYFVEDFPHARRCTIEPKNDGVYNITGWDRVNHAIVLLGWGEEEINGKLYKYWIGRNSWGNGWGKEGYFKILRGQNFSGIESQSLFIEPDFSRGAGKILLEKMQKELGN

Structure (SMILES) | % Inhibition @ 10 uM
Cc1ccc(-n2ncc3c2ncn2nc(Cc4ccccc4)nc32)cc1 | 0.569%
COc1ccc(CN2CCN(c3ccc(C(C)=O)cc3)CC2)cc1C | -2.36%
COc1ccc(-c2csc(/C(C#N)=C/c3ccc(C)s3)n2)cc1 | 1.37%
CCN(CC)c1cc(-c2ccccc2)nc(-c2ccccc2)n1 | 0.247%
CC(=O)c1c(C)oc2c1cc(NS(=O)(=O)c1ccc(C)cc1)c1ccccc12 | 0.878%
c1ccc(CCNC2CCCCCCC2)nc1 | -1.75%
COc1cccc(-c2nc(SCC(=O)NCC3CCCO3)c(-c3ccccc3)[nH]2)c1 (centres unmarked) | -5.27%
Cc1cc(/C=C2\NC(=O)NC2=O)c(C)n1-c1ccc(OCc2ccc(Br)cc2)cc1 | 14.5%
Oc1ccc2ccccc2c1[C@@H]1CCC2=NCCCN21 | 2.13%
CC(C)CCn1c(CN2CCCCC2)nc2ccccc21 | -1.31%
Cc1ccccc1NC(=O)COc1ccc([N+](=O)[O-])cc1 | -2.66%
CCCCNS(=O)(=O)c1ccc2nc(-c3cccnc3)cc(C(=O)NCCCN(CC)CC)c2c1 | -6.91%
Cc1cc(C)n2nc(SC(C)C(=O)N3CCC4(CC3)OCCO4)nc2n1 (centres unmarked) | -0.519%
Cc1cc(C(=O)CSc2n[nH]c(N)n2)c(C)n1-c1cc(Cl)ccc1Cl | -7.62%
CCCCN1CCC(O)(c2ccccc2)C(C(=O)c2ccccc2)C1 (centres unmarked) | -9.45%
Cc1ccc(C)c(CN(C)CCN(C)C)c1 | 1.04%
Cc1ccc(Cn2c(C)c3cnn(CC(=O)NCc4ccc(Cl)cc4)c(=O)c3c2C)cc1 | -0.447%
CN(CC(=O)NCc1ccccc1)S(=O)(=O)c1cc(Cl)ccc1Cl | -1.61%
O=C(NC1CCCc2ccccc21)C1CCN(c2ncnc3c2nc2n3CCCCC2)CC1 (centres unmarked) | 5.05%
CC(=O)N1CCN(c2ccc(NC(=O)c3cccc4c(Br)cccc34)cc2)CC1 | 0.0974%
CC12CCC(C(=O)N(CNc3ccccc3)C1=O)C2(C)C (centres unmarked) | -1.32%
COc1ccc(/N=C/C2=C(O)C(C)(C)OC2(C)C)cc1 | -5.34%
COc1ccc(S(=O)(=O)N2CCC(c3nnc(-c4ccccc4OC)o3)CC2)cc1OC | -1.08%
COc1ccc(C(=O)N2CCN(Cc3ccc(SC)cc3)CC2)cc1 | -1.08%
Cc1ccnc(N2COc3ccc4c(C)cc(=O)oc4c3C2)c1 | -2.3%

Structure (SMILES) | % Inhibition @ 10 uM
CC(C)(C)NC(=O)CCc1nc(-c2ccccc2)no1 | -3.12%
N#CCNC(=O)[C@H](Cc1cc(I)c(O)c(I)c1)NC(=O)c1ccc(-c2csc(Nc3ccncc3)n2)cc1 | -1.41%
CCOc1ccc(C2CC(c3ccc(Cl)cc3)Nc3ncnn32)cc1OC (centres unmarked) | 0.0842%
O=C(Nc1c(O)nc2ccccc2c1O)c1ccc(Br)cc1 | 1.2%
CCC(C(=O)N1CCOCC1)n1cc(C=O)c2ccccc21 (centres unmarked) | 6.95%
COc1ccc(CCNC(=O)CSc2nc3cccnc3[nH]2)cc1OC | 3.21%
CCOC(=O)C1=C(C)N(c2ccc(C)c(C)c2)C(=O)/C1=C\c1ccccc1 | 3.61%
Nc1c(C(=O)Nc2cccc(C(F)(F)F)c2)sc2nc3c(cc12)CCC3 | 3.69%
CCCNC(=O)C1CCN(c2nnc(C)c3c(C)n(-c4ccc(C)cc4)nc23)CC1 | -1.95%
O=C(COCc1cc(-c2cccs2)on1)Nc1cccnc1Cl | -5.25%
O=C(O)CC(NC(=O)CCc1ccccc1)c1ccc(Cl)cc1 (centres unmarked) | 2.57%
O=C(Nc1ccc(Oc2ccccc2)cc1)c1ccccc1 | -2.41%
CCC(C)NC(=O)c1cc(-c2ccc(O)cc2)on1 (centres unmarked) | 0.0654%
Cc1ccc(-c2nnn3c2nc(NCCc2ccc(S(N)(=O)=O)cc2)c2ccccc23)cc1 | -2.92%
C#CCn1cnc2c(cnn2-c2ccccc2)c1=O | -1.75%
O=S1(=O)C(Cl)=C(c2ccccc2)c2ccccc21 | -0.759%
Oc1ccc(-c2ccc3c(c2)OCO3)nn1 | 6.92%
Cc1ccc(CNC(=O)CCn2ccc3cc(S(=O)(=O)N4CCCCC4)ccc32)o1 | 0.931%
COc1ccc2c(Cl)c(C(=O)Nc3ccc(S(=O)(=O)N4CCCC4)cc3)sc2c1 | -2.45%
O=C(Cc1cccc2ccccc12)NCc1ccc2c(c1)OCO2 | 3.47%
COc1ccc(/C=C/C2=CCN(CC(O)c3ccccc3)CC2)cc1 (centres unmarked) | 1.4%
Cc1cc(C)cc(OCC(O)CN2CCN(Cc3ccc4c(c3)OCO4)CC2)c1 (centres unmarked) | -8.78%
CC(C)(C)C(=O)NC1(C(F)(F)F)N=C(c2ccccc2)NC1=O (centres unmarked) | 0.221%
O=C(COc1ccc(Cl)cc1)Nc1ccc(C(F)(F)F)cc1 | 1.96%
CC(=O)n1c2ccccc2c2cc(Br)ccc21 | 0.135%

Structure (SMILES) | % Inhibition @ 10 uM
CCSc1nc(O)c2c(n1)NC(=O)CC2c1cc(OC)c(OC)c(OC)c1 (centres unmarked) | 3.68%
c1csc(-c2cc3ccccc3[nH]2)c1 | -5.64%
CCOC(=O)c1[nH]c2ccc(OC)cc2c1NC(=S)N1CCN(c2ncccn2)CC1 | -1.71%
CC1(C)CC(=O)c2c(O)c(-c3ccccc3)c(=O)n(-c3ccc(Cl)cc3)c2C1 | 0.674%
COC(=O)C1=CN(C)C=C(C(=O)OC)C1c1ccc(OC)c(OC)c1 | 1.86%
COC(=O)C1=CN(C2CC2)C=C(C(=O)OC)C1c1ccccc1Cl | -7.18%
c1ccc(-c2nc(-c3cccs3)[nH]c2-c2ccccc2)cc1 | 1%
c1cncc(CN2CNc3nc4ccccc4n3C2)c1 | -1.72%
Cc1cc(C)nc(NC(=O)c2c(-c3ccccc3Cl)noc2C)c1 | -5.98%
Cc1nnc(NC(=O)CSc2nnc(Cc3cccn3C)n2-c2cccc(C)c2C)s1 | 0.226%
COC(=O)/C=C1\SC(NC(=O)c2ccc(OC)cc2)=NC1=O | -1.52%
O=C(c1ccc(CS(=O)(=O)c2ccc(Br)cc2)o1)N1CCCCC1 | -3.09%
O=c1c2cccnc2n(Cc2ccccc2F)c(=O)n1Cc1ccc2c(c1)OCO2 | 1.72%
COC(=O)c1cc(S(=O)(=O)NCCCN2CCCC2=O)cn1C | 3.78%
C=CCNC(=O)/C(C#N)=C/c1c(Oc2ccccc2Cl)nc2c(C)cccn2c1=O | 2%
CCN1CCN(C(=O)C(NC(=O)c2ccc(C34CC5CC(CC(C5)C3)C4)cc2)C(C)C)CC1 (centres unmarked) | -1.73%
N#CC1=C(N)Oc2[nH]nc(-c3ccc(Cl)c(Cl)c3)c2C1c1cccc(O)c1 (centres unmarked) | -7.18%
O=C(c1ccc2c(-c3ccccc3)[nH]nc(-c3ccccc3)c1-2)C(F)(F)F | 0.968%
Cc1ccc2ncnc(NCc3ccco3)c2c1 | 7.93%
O=S(=O)(c1c[nH]cn1)N1CCN(Cc2ccc3c(c2)OCO3)CC1 | 1.56%
COC(=O)c1ccc(OCC(O)CN2CCOCC2)cc1 (centres unmarked) | -9.16%
O=C(O)c1cc2c(o1)CCC/C2=N/O | -2.28%
Cc1ccc(Cn2cc(/C=C3\C(=N)N4N=C(N5CCOCC5)SC4=NC3=O)c3ccccc32)cc1 | -1.66%
Nc1ccc2ccccc2c1S(=O)(=O)O | -1.91%
O=C(COc1ccccc1)N1CCCCC1 | -2.42%

Structure (SMILES) | % Inhibition @ 10 uM
CCOC(=O)N1CCC(N2CCCC(C(N)=O)C2)CC1 (centres unmarked) | -3.6%
Cc1cc(C)c(C2C(C#N)=C(N)Oc3[nH]nc(C)c32)cc1COc1ccccc1Cl (centres unmarked) | 4.18%
O=C1C2C3CCC(O3)C2C(=O)N1c1cnn(Cc2ccc(Cl)c(Cl)c2)c1 (centres unmarked) | -3.65%
COc1ccccc1N1CCN(C(=O)CN(c2ccccc2F)S(C)(=O)=O)CC1 | 4.57%
COc1ccccc1-c1nnc(C2CCN(C(=O)c3ccc(F)cc3F)CC2)o1 | 2.13%
Cc1ccc(C2C3=C(O)CCCC3=Nc3nc(SCC(=O)NCc4ccccc4)nc(O)c32)cc1 (centres unmarked) | 2.33%
NC(=O)c1c(-c2ccccc2)csc1NC(=O)COc1ccccc1Cl | -2.87% and 5.99%
CCS(=O)(=O)C1=NN2C(=N)/C(=C\c3ccc(-c4cccc(C(=O)O)c4)o3)C(=O)N=C2S1 | 5.1%
CCc1ccc(OCC(=O)Nc2ccc(S(=O)(=O)Nc3nc(C)cc(C)n3)cc2)cc1 | -2.34%
Cc1ccc(S(=O)(=O)N2CCN(c3ccc4nnc(-c5ccccc5)n4n3)CC2)cc1 | 3.45%
CCN1CCN(Cc2nc3c(c(=O)n(C)c(=O)n3C)n2Cc2cccc(Cl)c2)CC1 | 2.9%
Oc1cc(-c2ccccc2)nc(-c2ccc(Br)cc2)n1 | 1.91%
C#CCN1Cc2cc(OC)c(OC)cc2C2(CCCC2)C1 | -3.85%
Cc1nn(C)cc1/C=C1\CCC/C(=C\c2cn(C)nc2C)C1=O | -4.77%
COc1cc2c(cc1OC)C(c1ccccc1[N+](=O)[O-])NCC2 (centres unmarked) | 6.18%
Cc1ccc(C(=O)N/C(=C\c2ccc3c(c2)OCO3)C(=O)NCCC(=O)O)cc1 | 0.222%
CCOc1ccc(S(=O)(=O)c2cnc3ccc(CC)cc3c2O)cc1 | -7.13%
CC(C)(C)c1ccc(Cn2ncc3ccccc32)cc1 | 1.67%
COc1ccc(Br)cc1C1=N/C(=C\c2ccc(C)cc2)C(=O)O1 | 3.26%
COC(=O)c1c(NC(=O)/C=C/c2ccc(OC)c(OC)c2)sc(-c2ccccc2)c1C | -7.22%
CCc1ccc(C2c3c(oc4ccccc4c3=O)C(=O)N2c2nncs2)cc1 (centres unmarked) | 0.2%
Cc1ccc(CNC(=O)c2cc3c(=O)n(Cc4cccs4)ccc3nc2C)cc1 | -0.12%
CC(COc1ccc2c(c1)OCO2)NC(=O)Cc1nnc(O)c2ccccc12 (centres unmarked) | -2.84%
